According to the supplement of paper PMC5499739:
Whole data set: some 16,000 sequences, median “Z-score” near -0.37, cut for the highest 2% near 3.1. Some of the results follow.

These sequences were tested on RBM10 RRM1-ZnF-RRM2 (GST-tagged construct) (assay: RNAcompete 7-mer binding Z-score; higher = stronger binding preference).
Method: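 RNAcompete: 20 pmol GST-tagged RBM10 RNA-binding constructs were incubated with a designed RNA pool of about 241,000 sequences up to 41 nt (1.5 nmol) on glutathione beads for 30 min at 4 °C and washed. Bound RNAs were identified by microarray hybridisation. Each RNA 7-mer is scored by a one-sided Z-score of its enrichment, computed over probes that contain the 7-mer within longer pool sequences.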

Sequence | RNAcompete 7-mer binding Z-score
ACUUCGG | -0.402
GUCCAAC | -0.657
UCCUCCG | -0.825
GAUGUCA | -0.253
GCACUGA | -0.202
UGGGUGC | 2.74
CGGGACC | 0.858
CGUUUCC | -0.817
GUUCAUG | -0.315
UGACAAC | -0.384
CGGUUGA | 0.876
UGUAGCA | -0.395
AUUCCGG | -0.559
GCGGCCA | -0.118
UUACCGU | -0.606
UCCCGUG | -0.351
UGAACAG | 0.468
AUAGGAC | 1.32
UAAUGUC | -0.42
UCAUCUC | -0.723
GCCUUCC | -0.795
CAUACCU | -0.748
UUCAUUG | -0.38

Sequence | RNAcompete 7-mer binding Z-score
GGCGGGG | 3.64
CCUAAGA | -0.541
UCGUCAG | -0.216
UAGUUGG | 1.23
CACUACC | -0.795
UAGGUGA | 2.39
CCCAGAG | -0.0998
CCAUUGA | -0.694
AACUAAG | -0.00512
UGUGUAG | 0.738
GGUGGAA | 3.71
AUCCCAC | -0.639
CCGGCGG | 0.388
CUAUCCC | -0.905
GUGUUGU | 0.268
AUCAGCA | -0.395
GUAACGU | 0.323
UCCACAG | -0.453
CCGGAGG | 0.876
UCGCCGC | -0.752
AGCAAGA | 0.17
GAGAUCC | -0.391
GGGGGUG | 3.43

Sequence | RNAcompete 7-mer binding Z-score
AGAUUAA | -0.0925
AUCCAGC | -0.69
AGGUUAA | 1.24
CGGUACC | -0.187
CAGUUGC | -0.49
CAGCCUG | -0.577
UCUAAAC | -0.708
GUCGCUG | 0.0495
GGAAGGA | 4.61
AGAGAGG | 1.58
AUCGUCC | -0.766
UACUAUG | -0.417
ACAACUC | -0.744
AAAUGCU | -0.577
GCAAUUA | -0.344
GUGCACA | 0.0167
UCUGGUU | -0.388
GUCCGAA | -0.606
AUUGAGG | 1.64
GGUCGGC | 0.854
UACAUAG | -0.0124
CAAAACA | -0.351
ACACACC | -0.475

Sequence | RNAcompete 7-mer binding Z-score
AGACCCC | -1.09
GUAAAAU | 0.0349
UACGAUG | 0.25
CUCUUUA | -0.887
UGUGCGA | 0.21
ACGCAGG | 0.625
GCAUGAU | -0.191
CUCGCGU | -0.635
GGACUUU | -0.304
UCCCCGA | -0.562
AUGAGGG | 4.32
AGAGCAC | -0.763
UUCGGUA | -0.144
AGCCAGC | -0.358
AUUAGGC | 0.439
UAUCUGG | -0.388
GGAGUCC | 0.749
CGGGUGU | 1.83
UAAACUU | -0.628
GCAUACU | -0.599
GACCGAG | -0.158
CCCCUCU | -0.602
AAUCCUA | -0.843
